Test results published in ChEMBL document CHEMBL4888484, “Replenishing the malaria drug discovery pipeline: Screening and hit evaluation of the MMV Hit Generation Library 1 (HGL1) against asexual blood stage Plasmodium falciparum ,using a nano luciferase reporter read-out” (2022).
Screen size: about 150,000 compounds; about 540 (0.36%) showed an effect of 50% or more. The list shows a part of the results.

These molecules were tested on Plasmodium falciparum (assay: Primary screen in NF54 nanoGlo assay, in single point, at 2uM, 72h; a lower Z score goes with more inhibition). Details: timepoint 72 hour.
Assay type: functional, Erythrocyte

Row | Compound | % Inhibition | Z score
1 | Cc1cc(C(=O)Nc2ccn(CCN(C)C)n2)nn1-c1ccc(F)cc1F | -13% | 1.2
2 | CN(CC#CCNC(=O)c1ccc(Cl)cc1Cl)Cc1ccccc1 | 0% | 0.05
3 | CCOc1nnc(CN2CCN(CC)c3ccccc32)s1 | -14% | 2.12
4 | Cc1cc(C#N)nc(N2CCc3cc(C)c(C)cc32)n1 | -8% | 1.37
5 | CC(C)c1cccc(N(C)C(=O)N(C)CCO)c1 | -5% | 0.97
6 | Cc1ccc(C)c(N2CCN(C(=O)c3cc(C)nc4c3c(C)nn4-c3ccccc3Cl)CC2)c1 | -1% | 0.19
7 | O=C(NCc1cccc(Br)c1)[C@H]1CCCN(c2nc3ccc(Br)cc3[nH]2)C1 | -3% | 0.48
8 | Cc1nnc(N2CCN(CC(F)(F)CO)CC2)nc1C | -7% | 1.36
9 | Cc1c[nH]c(CN(C)C(=O)[C@H](C)n2nc(C)cc2C)n1 | 1% | -0.13
10 | O=C(c1ccccc1)c1ccc2n1CC[C@H]2C(=O)NCc1cccc(Cl)c1 | 29% | -3.28
11 | O=c1[nH]c2c(-c3ccccn3)nsc2c(=O)n1Cc1cc(F)cc(F)c1 | -14% | 1.8
12 | O=C(Nc1cnc(C(F)(F)F)nc1)N(Cc1ccncc1)C1CC1 | 0% | -0.01
13 | Cc1cc(C)n2nc(C(=O)N(Cc3ccccc3)c3nc4c(s3)CCCC4)nc2n1 | -4% | 0.46
14 | CCN(CC)C(=O)Cn1c(=O)n(CCc2cccs2)c(=O)c2ccccc21 | -12% | 1.75
15 | Cc1ccc(F)c(CN2[C@@H]3CC[C@H]2CNC(=O)C3)c1F | -21% | 2.01
16 | COCC1(CNS(=O)(=O)CC(C)C)CCC1 | -3% | 0.35
17 | Cc1cc(Br)ccc1NC(=O)CCOC[C@H]1CCCO1 | 0% | 0.04
18 | COc1ccc([C@H](C)NC(=O)C(C)C)cc1 | -2% | 0.28
19 | O=C(c1cccnn1)N1CCCC[C@@H]1CCc1ccccc1 | -4% | 0.62
20 | Cc1ccc2c(C(=O)N3CCC[C@H](C#N)C3)cc(-c3cncnc3)nc2c1C | -18% | 2.63
21 | C[C@H](NC(=O)C(=O)Nc1ccn(C)n1)c1ccc(F)cc1F | -10% | 1.57
22 | N#Cc1c(N)nc2c(c1-c1ccccc1OCc1ccccc1)CNCC2 | 9% | -1.8

Row | Compound | % Inhibition | Z score
23 | Nc1ccc(CCS(N)(=O)=O)cc1 | -10% | 1.36
24 | COCc1ccc(CN2CCC(n3nccc3NC(=O)[C@H]3CCOC3)CC2)o1 | -6% | 0.71
25 | Cn1cnnc1[C@@H]1CCCN1Cc1c(Cl)cnn1C | -3% | 0.42
26 | COC(=O)[C@@H]1N[C@H](c2ccc(F)c(Cl)c2F)[C@@H]2C(=O)N(C)C(=O)[C@@H]21 | -5% | 0.67
27 | CN(C)c1ccc(C(=O)N2CC[C@H]3NC(=O)N(Cc4ccccc4)C(=O)[C@H]32)cc1 | 40% | -4.51
28 | c1ccc(Cc2cn[nH]c2[C@H]2CCCN(c3ncnc4[nH]ccc34)C2)cc1 | 11% | -2.16
29 | Cc1cc(NC[C@H](O)c2cnn(C)c2)ncc1Br | 38% | -0.98
30 | O=C(CCc1cccnc1)NC1(c2nccs2)CCCC1 | -2% | 0.3
31 | CCCn1c(C)c(C)c(S(=O)(=O)c2ccccc2)c1NC(=O)CC | -1% | 0.12
32 | O=C(O)Cc1sc(-c2ccccc2)nc1O | 37% | -0.89
33 | Cc1nc[nH]c1CNCCCc1ccccc1F | -1% | 0.2
34 | Cc1ccsc1S(=O)(=O)N[C@@H](CC(C)C)C(=O)O | -3% | 0.29
35 | Cc1ccc(C(=O)CN2C3=NCCCCN3c3ccccc32)cc1 | -2% | 0.27
36 | OC1CC(CCNCc2ccc(C#Cc3cn[nH]c3)cc2)C1 (configuration not stated) | 4% | -0.7
37 | CCCn1cc(-c2ccncc2)cc1C(=O)N1CCN(C)CC1 | -2% | 0.28
38 | Cc1nnc2c(N3CCC(NC(=O)c4c(F)cccc4Cl)CC3)nccn12 | 5% | -0.74
39 | Cc1ccccc1C(=O)N1[C@H](C(=O)NCC(C)C)COC12CCN(C(=O)c1cccs1)CC2 | -4% | 0.75
40 | COc1ccc(NC(=O)CC2(N3Cc4ccccc4C3=O)CCOCC2)cc1 | -3% | 0.38
41 | Fc1ccc([C@@H]2CCN2CCc2ccccn2)cc1 | 4% | -0.79
42 | CC(C)c1nc([C@H](C)NC(=O)c2ccnc(N(C)C)c2)cs1 | -8% | 1.07
43 | CCOC(=O)c1cccnc1NCc1ncccc1F | 3% | -0.52
44 | CC1(C)C(=O)NCCN1C(=O)NC1CCCCC1 | -6% | 0.9

Row | Compound | % Inhibition | Z score
45 | COc1ccc(OC)c2[nH]c(C(=O)N(C)C[C@@H]3CCCN4CCCC[C@H]34)cc12 | 3% | -0.41
46 | C[C@@H](c1ccc(Cl)cc1)N(C(=O)Cn1cc(C(=O)O)cn1)C1CC1 | -23% | 2.73
47 | CNC(=O)C1CCCC1Nc1ccn2c(C(=O)OC)cnc2n1 (configuration not stated) | -1% | 0.15
48 | Cc1cc(NCc2csc(C3CC3)n2)ccc1C(F)(F)F | -4% | 0.53
49 | O=C(NCc1ccc(F)cc1)c1cc2n(n1)CCN(Cc1ccc(Cl)cc1)C2=O | -18% | 3.45
50 | O=C(NCC1CC1)[C@]1(F)CCCN(Cc2cccnc2)C1 | -1% | 0.23
51 | Cc1ccncc1Cc1nc(-c2ccc(S(=O)(=O)NCC(C)C)cc2)no1 | 4% | -0.8
52 | O=S(=O)(Nc1cnc(C2CC2)nc1)c1c(F)cccc1Cl | -9% | 1.77
53 | CC1CC(NC(=O)c2cncn2-c2ccc(-c3ccc(F)c(F)c3)cc2)CC(C)(C)C1 (configuration not stated) | -14% | 1.8
54 | CC1=C(C(=O)Nc2cccc([C@@H]3CNC(=O)C3)c2)CCC1 | -13% | 1.08
55 | C[C@@H](NC(=O)c1cccc(F)c1)C(=O)NCc1cscn1 | 3% | -0.34
56 | O=C(Nc1ccnn1C1CCCCC1)c1ccoc1 | 0% | -0.03
57 | Cc1c(CN(C)c2nc3c(c(=O)[nH]2)Cc2ccccc2OC3)cnn1C | -1% | 0.1
58 | COc1ccc(NC(=O)Cn2cnc3c(-c4ccccc4)nsc3c2=O)cc1Cl | -7% | 1.22
59 | COc1c(NC(=O)Nc2cc(-c3ccccc3)ns2)c(C)nn1C | -4% | 0.43
60 | O=C(N[C@H]1CCS(=O)(=O)C1)c1cc(N2CCCC2)ncn1 | -5% | 0.93
61 | COc1ccccc1C1(CNC(=O)COc2ccccc2)CCOCC1 | -10% | 1.39
62 | COCCNC(=O)[C@H]1O[C@H](CCN2CCN(c3ccccc3)CC2)CC[C@@H]1O | 17% | -1.98
63 | Cc1ccc(-n2nc(C(=O)N3CCN(C)CC3)c(=O)n(Cc3ccccc3)c2=O)cc1C | -10% | 0.91
64 | CCOc1c(Br)cc(/C=C(/NC(C)=O)C(=O)O)cc1Br | 36% | -1.3
65 | S=c1oc2cc(Cl)ccc2n1CN1CCN(c2ccccn2)CC1 | -5% | 0.89
66 | C[C@H]1OCCN(Cc2ccc3c(c2)CCO3)[C@@H]1C(N)=O | -14% | 1.21

Row | Compound | % Inhibition | Z score
67 | CC[C@H]1CN(S(=O)(=O)c2ccc3c(c2)OCCO3)CCO1 | -11% | 1.03
68 | CCc1nn(C)cc1CN1CCn2cccc2[C@@H]1CC | -7% | 0.69
69 | O=C(NCCn1ccnc1)c1cc(=O)c(OCc2ccccc2)c[nH]1 | 0% | -0.03
70 | O=C(CN1CCC(Cn2c(COc3ccccc3)nc3ccccc32)CC1)Nc1nncs1 | 13% | -1.47
71 | CC(C)c1ccnc(N[C@H](C(=O)N(C)C)C(C)C)n1 | -31% | 2.77
72 | CCN1CCN(C(=O)NC2CC(C)(F)C2)CC1=O (configuration not stated) | 6% | -0.81
73 | CCCCN1CCOC[C@H]1c1nc(-c2ccc3c(c2)CCO3)no1 | 3% | -0.37
74 | CC1CN(C(C(=O)N2CCCN(C(N)=O)CC2)C(C)C)CC(C)O1 (configuration not stated) | 6% | -0.99
75 | COC(=O)C1(NC(=O)OC(C)(C)C)CC(CN2CC[C@H](F)C2)C1 (some centres not stated) | -9% | 1.38
76 | NC(=O)C1CCN(C(=O)C2CC3CCC2C3)C1 (configuration not stated) | -14% | 1.58
77 | Cc1nc(C(=O)N2CCn3nc(CCC(=O)NC(C)C)cc3C2)cs1 | -17% | 3.34
78 | CCc1cc(CN(C)CCc2nccn2C)on1 | 6% | -1
79 | COC(=O)N[C@@H](C)c1nc(C)nn1-c1cccnc1 | -11% | 1.25
80 | COc1c(F)cccc1CN1CCC([C@H](C)N2CCCC2)CC1 | -7% | 0.88
81 | Cc1cccc(N(CC(=O)Nc2ccccc2C(=O)NCc2ccco2)S(C)(=O)=O)c1 | 5% | -0.75
82 | c1cc2oc(C3CCCCC3)nc2cc1Cc1ccc2oc(C3CCCCC3)nc2c1 | -5% | 0.55
83 | N[C@@H]1CCN(C(=O)CCc2nc3cc(Br)ccc3s2)C1 | -7% | 1.07
84 | c1ncn(C[C@H]2CCCN(Cc3ccc4c(c3)OCCO4)C2)n1 | -5% | 0.73
85 | CC(C)CNC(=O)C(=O)NCCc1ccc(F)cc1 | -4% | 0.54
86 | Cc1cnn(C)c1NC(=O)c1cccc(CN2CC[C@@H]3CCCC[C@H]3C2)c1 | -7% | 1.36
